B1: TPR 5TU (parent)
chain: GGAUCUUCUCGAUCUAACAAAAAAGACAAAUCUGCCACAAAGCUUGAGAGCAUCUUCGGAUGCAGAGGCGGCAGCCUUCGGUGGCGCGAUAGCGCCAACGUUCUCAACUAUGACACGCAAAACGCGUGCUCCGUUGAAUGGAGUUUAUCAUG

This sample is rich in variants without activity.

In the data set the parent is B1. The data set can be described thus: polymerase ribozyme fitness, log enrichment relative to wild type (log ratio); higher = more active; in vitro selection for triplet polymerase activity. In outline: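 Fitness is a logarithmic measure of how a genotype enriched relative to the wild type, with replicate averages weighted by inverse variance. The logarithm uses base 2, and enrichment came from Illumina sequencing of input and output libraries. Those libraries were PCR-built, transcribed mutants of each subunit of a heterodimeric triplet polymerase ribozyme, passed through one triplicate in vitro selection round that included frozen incubation at −7 °C, gel excision of extended constructs and streptavidin-bead capture. Genotypes were kept only if they had ≥10 input reads and ≥1 read per output.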
In the case of G46A A60U A64G C85A G94U A120C, the “polymerase ribozyme fitness (log ratio)” value is not above -4.2.

On to G46U A49C A66C C79A U82C C96U A142G, for which the “polymerase ribozyme fitness (log ratio)” value was not above -4.2.

G46C G88A C95A A142U A147U: the “polymerase ribozyme fitness (log ratio)” value is not above -4.2.

With C43U U139G G141U, the “polymerase ribozyme fitness (log ratio)” value was not above -4.2.

Consider C43U A142U U148A, for which the “polymerase ribozyme fitness (log ratio)” value is not above -4.2.

With U45G C93A C95U, the “polymerase ribozyme fitness (log ratio)” value is -3.98.

Turning to G46A G84U C103A C105G C108G C131G G141C, the “polymerase ribozyme fitness (log ratio)” value was not above -4.2.

For the variant A47C A49C G65A G84A A113G G141A, the “polymerase ribozyme fitness (log ratio)” value is not above -4.2.

In the case of G46U C51G C54U, the “polymerase ribozyme fitness (log ratio)” value is not above -4.2.

Regarding U44A U82A G92A, the “polymerase ribozyme fitness (log ratio)” value was not above -4.2.

Consider U44A C57U C69A G94A A115U G117A G141A, for which the “polymerase ribozyme fitness (log ratio)” value was not above -4.2.

Regarding G46A G83C A89U U134A G141A, the “polymerase ribozyme fitness (log ratio)” value is not above -4.2.

For U45G C76A C93U A119G, the “polymerase ribozyme fitness (log ratio)” value is not above -4.2.

For the variant C43A C54U G86A A98U, the “polymerase ribozyme fitness (log ratio)” value is not above -4.2.

G46A C76A G86U A121U U144G: the “polymerase ribozyme fitness (log ratio)” value is not above -4.2.

In the case of U45A G65A G84U C95G G126U, the “polymerase ribozyme fitness (log ratio)” value was not above -4.2.

Regarding U45A G117U, the “polymerase ribozyme fitness (log ratio)” value was -3.08.

On to C43A C93U C103A C105A, for which the “polymerase ribozyme fitness (log ratio)” value is not above -4.2.

C43G A52C C85U C116U G152U: the “polymerase ribozyme fitness (log ratio)” value was not above -4.2.

U44G G50A U55A G65A G84U A97U U101C: the “polymerase ribozyme fitness (log ratio)” value is not above -4.2.

Take U44A A52U G65A C85U A97C G117U A142U: the “polymerase ribozyme fitness (log ratio)” value was not above -4.2.

With G46U U55A C75U A89G C116G, the “polymerase ribozyme fitness (log ratio)” value was not above -4.2.

Consider U44A A73G G86U A113U C125U, for which the “polymerase ribozyme fitness (log ratio)” value was not above -4.2.

For the variant U44A C85U A89G U104A A138G, the “polymerase ribozyme fitness (log ratio)” value was not above -4.2.

As to U44A G50A U55G G83C C85A U145A U146G, the “polymerase ribozyme fitness (log ratio)” value was not above -4.2.

For the variant U45A A47U G80U U90A, the “polymerase ribozyme fitness (log ratio)” value is not above -4.2.

Consider C43G U45A U55A C63U G84C C85G C93G G124C G133C, for which the “polymerase ribozyme fitness (log ratio)” value is not above -4.2.

U44G G62A: the “polymerase ribozyme fitness (log ratio)” value was not above -4.2.

For G46A A52C C93A U104G C132A, the “polymerase ribozyme fitness (log ratio)” value was not above -4.2.

As to U45A A73G G83C C85U, the “polymerase ribozyme fitness (log ratio)” value was not above -4.2.

Regarding G46C C54A G70U C85G U130G A147U, the “polymerase ribozyme fitness (log ratio)” value was not above -4.2.

Regarding U45G G59A, the “polymerase ribozyme fitness (log ratio)” value is -0.523.

Turning to C43U A73U G94A U104A U111G U139A, the “polymerase ribozyme fitness (log ratio)” value is not above -4.2.

For the variant G46U A47G G48A G50C A66U U144A A147C, the “polymerase ribozyme fitness (log ratio)” value was not above -4.2.

In the case of U45A A47C G86A A107G U127G G140U A150U G152U, the “polymerase ribozyme fitness (log ratio)” value was not above -4.2.

As for G46U U56A C103A A107C, the “polymerase ribozyme fitness (log ratio)” value is not above -4.2.

In the case of U45C G50C U102C C118G, the “polymerase ribozyme fitness (log ratio)” value was not above -4.2.

With U44A A97U, the “polymerase ribozyme fitness (log ratio)” value is not above -4.2.

On to U45A G58C, for which the “polymerase ribozyme fitness (log ratio)” value is -2.28.

As to G46C G59C C93G, the “polymerase ribozyme fitness (log ratio)” value is not above -4.2.

For the variant U45G A52C U56C U78G U82A G94U A97U C123G, the “polymerase ribozyme fitness (log ratio)” value is not above -4.2.

Turning to U45A G70A C93U, the “polymerase ribozyme fitness (log ratio)” value is not above -4.2.

In the case of U44G G88C C108G U144C C149U, the “polymerase ribozyme fitness (log ratio)” value is not above -4.2.

For the variant G46U U53A C63A C99G U101G C103A, the “polymerase ribozyme fitness (log ratio)” value is not above -4.2.

For U45A U53C C54U C57G G84C, the “polymerase ribozyme fitness (log ratio)” value is not above -4.2.

For C43A U45C G80C U82G G86U C96G G100U, the “polymerase ribozyme fitness (log ratio)” value was not above -4.2.

Turning to G46A C54G C95U, the “polymerase ribozyme fitness (log ratio)” value was -2.17.

For the variant U45A A49C G58A, the “polymerase ribozyme fitness (log ratio)” value was not above -4.2.

As for C43G G59C A60G G74U U148C, the “polymerase ribozyme fitness (log ratio)” value was not above -4.2.

Take C43G G58C U61C U111G: the “polymerase ribozyme fitness (log ratio)” value is not above -4.2.

On to U44G U45G C72G, for which the “polymerase ribozyme fitness (log ratio)” value is not above -4.2.

Take C43A C57G U78G C96A A113G: the “polymerase ribozyme fitness (log ratio)” value is not above -4.2.

For the variant G46U G59A A60C, the “polymerase ribozyme fitness (log ratio)” value is -2.54.

As to C43U C79A C108G A138G G140A, the “polymerase ribozyme fitness (log ratio)” value was not above -4.2.

On to U45G C87G U139A, for which the “polymerase ribozyme fitness (log ratio)” value was not above -4.2.

Turning to U44A A91C G94U C149G, the “polymerase ribozyme fitness (log ratio)” value is not above -4.2.

For the variant C43G G46A G68A A107U G126A C129A C132U, the “polymerase ribozyme fitness (log ratio)” value is not above -4.2.

For C43A C57U C76G C85A G86A G140A, the “polymerase ribozyme fitness (log ratio)” value is not above -4.2.

Regarding C43U C63U G70C U77A G84A, the “polymerase ribozyme fitness (log ratio)” value was not above -4.2.

U44A C57G C69G G80C U82A C108A U109G G141C: the “polymerase ribozyme fitness (log ratio)” value was not above -4.2.

Consider G46U G59C C85A A115U, for which the “polymerase ribozyme fitness (log ratio)” value was -4.01.

Turning to U44A A47C, the “polymerase ribozyme fitness (log ratio)” value was not above -4.2.

For U44G G46U C85A C93U A137G U139C U145A, the “polymerase ribozyme fitness (log ratio)” value is not above -4.2.

U44G C93G U102G: the “polymerase ribozyme fitness (log ratio)” value was not above -4.2.

Regarding C43U U53A A64U C72G C85A, the “polymerase ribozyme fitness (log ratio)” value was not above -4.2.

C43G G58C U78A G133U: the “polymerase ribozyme fitness (log ratio)” value is not above -4.2.

For the variant C43U A47C C79G, the “polymerase ribozyme fitness (log ratio)” value is not above -4.2.

As to C43U U55G C93G C99A C129A G152A, the “polymerase ribozyme fitness (log ratio)” value is not above -4.2.

Regarding C43G U55A G68C A91G C114U C129U G133U, the “polymerase ribozyme fitness (log ratio)” value is not above -4.2.

For the variant U44A A47U C69G G70A C72U C93U A106G, the “polymerase ribozyme fitness (log ratio)” value was not above -4.2.

As for C43A U44A C118U, the “polymerase ribozyme fitness (log ratio)” value is -4.17.

U45C G48C C99A G143A U148C: the “polymerase ribozyme fitness (log ratio)” value is not above -4.2.

For the variant A47C A60G A91U U146A, the “polymerase ribozyme fitness (log ratio)” value is not above -4.2.

Consider G46U G83U A91U A106U U148C, for which the “polymerase ribozyme fitness (log ratio)” value was not above -4.2.

In the case of U44A U56A C72U G94A U101C A121G, the “polymerase ribozyme fitness (log ratio)” value was not above -4.2.

With C43A C95G C118G U127G C132U, the “polymerase ribozyme fitness (log ratio)” value was not above -4.2.

On to C43A G141C, for which the “polymerase ribozyme fitness (log ratio)” value is not above -4.2.

As to U44A A89U G92C C95U, the “polymerase ribozyme fitness (log ratio)” value was not above -4.2.

For the variant U45A C57A C96U G124A, the “polymerase ribozyme fitness (log ratio)” value is -3.11.

With G46U G84A A106U A150C, the “polymerase ribozyme fitness (log ratio)” value is not above -4.2.

Take C43U U56A G68C U104A A115C G124A U144G: the “polymerase ribozyme fitness (log ratio)” value is not above -4.2.

As to U45C U53A C57G C72U G83C C85A C93U, the “polymerase ribozyme fitness (log ratio)” value was not above -4.2.

U44C G140U: the “polymerase ribozyme fitness (log ratio)” value is not above -4.2.

The values above are taken from the RNAGym collection of RNA variant scans (doi:10.1073/pnas.2313332121).
